Data reported in US8895004B2 (priority 2007, dated 2014).

Experiments:
[1] = target: T1, P/Q type voltage-gated presynaptic calcium channel (Rattus norvegicus, UniProt P54282); format: cell-based
T1 construct: Typical P/Q channel-mediated currents could be reliably elicited in somatic whole-cell recordings under our culture conditions; endogenous in cells; host or cells: cultured hippocampal neurons

[2] = system: P/Q type voltage-gated presynaptic calcium channel; format: binding; settings: rat brain membrane fractions

Substance: Aβ(1-42) globulomer: soluble, globular, non-covalent association of Aβ(1-42) peptides, apparent molecular weight 38/48 kDa, obtained as in Example 6b of WO2004/067561
- activity of the P/Q type voltage-gated presynaptic calcium channel [1]: directly inhibits the activity
- washout after binding to the P/Q channel [1]: cannot be readily washed out
- physical binding to the P/Q type channel [2]: capable of physically binding
